# Measurements: paper PMC6212790
# The other results are listed elsewhere or left out. At the low end of the ranking, values are background and their order means little.
# Target: T1, GST-Rok-C97-191 (UniProt O34857)
# T1 sequence: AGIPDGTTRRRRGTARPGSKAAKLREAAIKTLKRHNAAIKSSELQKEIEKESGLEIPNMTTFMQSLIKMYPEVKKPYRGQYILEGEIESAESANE
# Assay: protein binding microarray;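 also: rank score from −0.5 (least bound) to 0.5 (best bound)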
# Conditions: Rok is a gene silencer of Bacillus subtilis; high values mean tight binding; most listed sequences are background and not binding sites; double strand, one strand shown
row,Sequence,binding signal
1,AGAGGAGA,-0.0752 E-score
2,GCGTCACC,-0.285 E-score
3,ATCCACGG,-0.135 E-score
4,GTTGGCGA,0.0266 E-score
5,CTATAATC,0.222 E-score
6,CCGTACCG,-0.144 E-score
7,ATGTGATG,-0.0349 E-score
8,GCTGGTGA,-0.0713 E-score
9,CTCGCGCA,0.0104 E-score
10,ACGACTCG,-0.0368 E-score
11,AAACGGCT,-0.113 E-score
12,AAGCCTCT,-0.104 E-score
13,AAGGAGAC,-0.265 E-score
14,GCCGGTAA,-0.0519 E-score
15,AGCAGTAT,0.0236 E-score
16,GGCGTCGA,-0.184 E-score
17,ATTATTGA,0.141 E-score
18,CTGGCTCA,-0.0492 E-score
19,CTGTAGAA,0.258 E-score
20,AAATCTCT,0.168 E-score
21,GCTCTCTA,-0.132 E-score
22,ATACGGCC,-0.159 E-score

row,Sequence,binding signal
1,GACATACA,0.0185 E-score
2,CGGCTATC,0.000392 E-score
3,ATCTCTCA,0.14 E-score
4,GAGTGCGC,-0.179 E-score
5,GAGATCCA,-0.0168 E-score
6,AATGTCCC,-0.143 E-score
7,CTATCAAA,0.176 E-score
8,AGCAAAAC,-0.1 E-score
9,ATAATATG,0.244 E-score
10,CTACCTTA,0.264 E-score
11,CAGCGACC,-0.105 E-score
12,ACGGGGCA,-0.208 E-score
13,AGCTAACC,-0.0997 E-score
14,CACTTGAG,0.0882 E-score
15,GAAGAATC,0.0848 E-score
16,GGACCTCA,-0.337 E-score
17,CAGTTAAA,0.272 E-score
18,CAGAGTGA,-0.0342 E-score
19,ATGGTGGG,-0.258 E-score
20,CCAGCGGC,-0.238 E-score
21,GCAAGCGC,-0.213 E-score
22,AGGAGGCA,-0.267 E-score

row,Sequence,binding signal
1,GGTTTAGA,0.215 E-score
2,GCGCCGCA,-0.333 E-score
3,ACGAATAT,0.241 E-score
4,GCTTCGTA,-0.12 E-score
5,CACTGCCA,-0.134 E-score
6,GATATCCA,0.0457 E-score
7,ATCTGAAT,0.104 E-score
8,ACGAGGAT,-0.145 E-score
9,CTAGCAGA,0.16 E-score
10,ATTCGAAT,0.156 E-score
11,ACGTGTGC,-0.0201 E-score
12,ACTGGGAA,-0.0335 E-score
13,CCCGAATC,-0.139 E-score
14,GTATAACA,0.141 E-score
15,GAGGTACA,0.0875 E-score
16,ACTATCAA,0.253 E-score
17,AAGTGACC,-0.126 E-score
18,ATGGAAGA,-0.0605 E-score
19,ATTATTCA,0.199 E-score
20,GTGGCCGA,-0.0542 E-score
21,AGGTGGAT,-0.111 E-score
22,ACATCAAT,0.0564 E-score

row,Sequence,binding signal
1,ATACCTTC,0.0592 E-score
2,CATGTTTC,0.128 E-score
3,ACGGGGGA,-0.23 E-score
4,AGCTAGGG,-0.0587 E-score
5,ACAATGGA,-0.0232 E-score
6,AAAATACA,0.32 E-score
7,ACCCACGC,-0.144 E-score
8,AGGAGTAC,-0.15 E-score
9,CGTAATAG,0.247 E-score
10,CAACGGGG,-0.142 E-score
11,CCTTCCAC,-0.141 E-score
12,AAGGGGGT,-0.376 E-score
13,ATGCTCCG,-0.113 E-score
14,AGCAGTCC,-0.0761 E-score
15,TATACAGA,0.267 E-score
16,CACTAAAG,0.12 E-score
17,GAGTACAA,0.136 E-score
18,ATCCGTGC,-0.0679 E-score
19,TACCAGCA,0.0302 E-score
20,TATGAAGA,0.0351 E-score
